Test results published in paper PMC5469273, “Discovery of Novel Small-Molecule Inhibitors of LIM Domain Kinase for Inhibiting HIV-1” (Journal of Virology, 2017).

Test system: resting CD4 T cells
Experiment: Surface staining of CD25 and CD69 after CD3/CD28 activation
Type: cell-based
Conditions: short drug treatment

COC(=O)c1ccc2[nH]c(C3CCN(c4ncnc5[nH]cc(Cl)c45)CC3)nc2c1 [Compound R10015, Methyl 2-(1-(5-chloro-7H-pyrrolo[2,3-d]pyrimidin-4-yl)piperidin-4-yl)-1H-benzo[d]imidazole-5-carboxylate]
T cell function (surface expression of CD25 or CD69 after activation): did not inhibit
